# Laboratory results as given in PubChem BioAssay AID463173 (ICCB-Longwood Screening Facility, Harvard Medical School, 2010).
# The whole screen tested about 52,000 compounds, of which about 1,700 (3.3%) were called active. Rule as the data show it: active = survival mostly below about 52% (no sharp cut-off); inactive = mostly above about 56%. Some of the results follow.
# System: Wild type
# Test: growth inhibition of S. aureus wild type versus tarO mutant, primary screen, teichoic acid synthesis inhibitors, RN4220, OD600 (AID 463173)
# Conditions: S. aureus RN4220 wild type/DeltatarO growth, OD600, 18 h, active compounds read low, screened at 18.75 µg/mL (by protocol)
row,SMILES,survival
1,O=C(Nc1ccc(F)cc1F)c1cc(CN2CCOCC2)on1,inactive: 69%
2,COc1ccc(CNC(=O)C2=Cc3cccc(OC)c3OC2)cc1OC,inactive: 66%
3,CCN1CCCC1CNC(=O)Nc1c[nH]c2ccc(C)cc2c1=O (stereo not given),inactive: 117%
4,Cc1ccc(S(=O)(=O)Nc2ccc3c(c2)CCCN3C(=O)c2cccs2)cc1C,inactive: 65%
5,COc1cc(Br)c(C2CC(=O)Nc3cc4c(cc32)OCCO4)cc1OC (stereo not given),inactive: 90%
6,CCc1ccc(CNC(=O)c2ccc(-n3c(C)cc4c3CCC(C)C4)cc2)cc1 (stereo not given),inactive: 124%
7,COc1cccc(C(c2sc3nc(-c4ccco4)nn3c2O)N2CCC3(CC2)OCCO3)c1 (stereo not given),inactive: 60%
8,CCc1nn(CC(=O)NCCN(CC(C)C)CC(C)C)c(=O)c2cc3sc(C)cc3n12,inactive: 83%
9,CCc1ccc(NC(=O)c2ccc(F)c(S(=O)(=O)N3CCc4ccccc4C3)c2)cc1,inactive: 71%
10,Cc1cccc(NC(=O)C(Cc2ccccc2)N2Cc3ccccc3C2=O)c1C (stereo not given),inactive: 67%
11,COc1ccc(-c2nc(CSc3nnc(C)n4c3cc3sccc34)c(C)o2)cc1,inactive: 108%
12,CCS(=O)(=O)N1CCc2cc(C(=O)Nc3cccc(NC(C)=O)c3)ccc21,inactive: 78%
13,COc1ccc(-c2ccc(=O)n(CC(=O)Nc3ccccc3C(F)(F)F)n2)cc1,inactive: 55%
14,Oc1ccccc1-c1nc2ccc(Cl)cn2c1Nc1ccc2c(c1)OCCO2,inactive: 82%
15,O=C(Nc1c(C(=O)N2CCN(c3ccccc3F)CC2)oc2ccccc12)c1ccc(Br)o1,inactive: 80%
16,Cc1ccc(C2c3[nH]c4ccccc4c3CCN2C(=O)CSc2ccccc2)cc1 (stereo not given),inactive: 66%
17,Cc1cc(C(=O)NCc2ccc(C(=O)O)o2)c(C)o1,inactive: 96%
18,CCOC(=O)CSc1nc2c(C)ccc(C)c2cc1C#N,inactive: 95%
19,CC(Oc1ccc(Br)cc1)C(=O)N(Cc1nc(-c2ccccc2)no1)C(C)C (stereo not given),inactive: 104%
20,O=C(NCCCN1CCN(c2ccccc2)CC1)c1ccc2nc(CCc3ccccc3)oc2c1,inactive: 45%
21,CCc1nn2c(=O)cc(COC(=O)c3ccccc3NC(=O)c3ccc(C(C)(C)C)cc3)nc2s1,inactive: 90%
22,Cc1ccccc1OCC(=O)Nc1nnc(S(=O)(=O)N2CCCCCC2)s1,inactive: 77%
23,Cn1c(=O)oc2cc(S(=O)(=O)N3CCCC(C(=O)N4CCN(c5ccc(F)cc5)CC4)C3)ccc21 (stereo not given),inactive: 86%
24,CSc1cccc(NC(=O)C2CCCN(S(=O)(=O)c3ccc4c(c3)CCCN4C(C)=O)C2)c1 (stereo not given),inactive: 70%
25,O=C(O)C1CSC(c2cccs2)N1 (stereo not given),inactive: 106%
